Assay results published in article PMC9963398, “Discovery of New Quinolone-Based Diarylamides as Potent B-RAF^V600E/C-RAF Kinase Inhibitors Endowed with Promising In Vitro Anticancer Activity” (International Journal of Molecular Sciences, 2023).

Target: T1, B-RAF^V600E (Homo sapiens, UniProt P15056, V600E)
T1 construct: purchased Reaction Biology Corporation (RBC), Kinase HotSpot service
Assay: HotSpot kinase assay (RBC), B-RAF^V600E
Type: biochemical
Details: IC50 at 1 µM versus 10 µM ATP, B-RAF^V600E and C-RAF

With `CN1CCN(Cc2ccc(C(=O)Nc3cccc(Nc4ccc5cc(O)ccc5n4)c3)cc2C(F)(F)F)CC1` [Compound 18a, N-(3-((6-hydroxyquinolin-2-yl)amino)phenyl)-4-((4-methylpiperazin-1-yl)methyl)-3-(trifluoromethyl)benzamide] the inhibitory mode was “competitive ATP kinase inhibitor”.
